Results reported in PubChem BioAssay AID1347417 (National Center for Advancing Translational Sciences (NCATS), 2020).
In all, about 120,000 compounds went through this assay and about 5,300 (4.4%) were called active. The inconclusive results got no clear call from the source; some entries with a clear call stand among them for comparison. Calls come from the whole dose curve; as a rule, active = well fitted inhibition curve with a large enough effect; inconclusive = small, poorly fitted or top-dose-only effect; inactive = no such curve, though single readings can be large or run the other way. Potencies of inconclusive entries are doubtful fits and often do not repeat.

Assay: qHTS Primary assay for Inhibitors of Plasmodium falciparum Dd2 growth in vitro; note: nearly all actives have a fitted effect of over 65% in size;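 for activity, negative = inhibition: plate controls were DMSO vehicle for no effect and reference drug for full effect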
Settings: P. falciparum Dd2 growth, SYBR Green, 72 h; activity, negative = inhibition: at 28.9 µM (top of the series) unless noted; series mostly up to 28.9 µM
Excerpt: Malaria, a parasitic disease spread to humans through the bite of a Plasmodium infected Anopheles mosquito, continues to be a global health burden affecting millions of people, with an estimated 228 million cases and 405,000 deaths in 2018. Concerns about safety and limitations of current antimalarial treatments strongly emphasize the need to develop new therapeutic options. The scarce number of chemotypes and validated drug targets with efficacy against the liver stage, have hindered development of new antimalarials. To address this, a chemoprophylactic drug discovery effort was conducted through a combined phenotypic high-throughput asexual blood stage and liver stage screen, providing a robust foundation to identify liver-stage active lead chemotypes. Compounds were initially screened against Plasmodium falciparum Dd2 strain parasites using a in vitro SYBRGreen-1 based 72 hr proliferation assay to identify novel chemotypes to advance to liver stage assays. NIH/NCATS Early Translation Branch Assay Submitter (PI): Anton Simeonov Ph.D.
Malaria-vivax Assay Protocol: PROTOCOL TABLE (as described by Inglese et al., 2007) SEQUENCE No. (e.g., 1, 2, 3, etc.); […] (e.g., Cells, Incubation, Reagent, etc.); VALUE; DESCRIPTION SEQUENCE, Parameter, Description 1; Reagent; 3 uL complete malaria growth medium, 1536 TC treated Black clear bottom plate 2; Controls; 23 nL positive control artesunate (300 nM final) to column 1; Neutral control DMSO to columns 2-4 3; Compound; 23 nL of compounds in dose response concentration (29 uM to 0.5 nM final) 4; Reagent; 5 uL malaria infected red blood cells (2.5% hematocrit final, 0.3% parasitemia 5; Time; 72 hours at 37C (5% O2, 5% CO2, 90% N2; 95% Rh) 6; Reagent; 2 uL lysis buffer/SYBRGreen-1, 25 sec shake immediately following dispense 7; Time; ~16 hours at 37C (5% O2, 5% CO2, 90% N2; 95% Rh) 8; Detector; EnVision (PerkinElmer) bottom read at 485/14nm excitation and 535/25 nm emission NOTES (numbers refer to sequence above): 1; Complete Malaria Growth Media: 1X RPMI-1640 w/L-glutamine, 5.5g/L Albumax II, 367 uM Hypoxanthine, 25 mM HEPES, 0.25% Sodium Bicarbonate, 35 uM Gentamicin sulfate 2; Controls were added using the Kalypsis Pintool (Wako USA) equipped with 1536 pinhead 3; Compounds were added in a 7-point, titration with a high final concentration of 29 uM by Pintool from seven inter-plate titrations of library plates and two DMSO control plates at the beginning and end (see Yasgar et al., 2008). 4; Red blood cells infected with Plasmodium falciparum Dd2 parasites were used. 6; Lysis buffer: 20 mM Tris-HCl, 10 mM EDTA, 0.16% Saponin, 1.6% Triton-X, 10X SYBR Green. REFERENCE: Inglese J, Shamu CE, Guy RK. 2007. Reporting data from high-throughput screening of small-molecule libraries. Nat Chem Biol. doi:10.1038/nchembio0807-438 Yasgar A, Shinn P, Jadhav A, Auld D, Michael S, Zheng W, Austin CP, Inglese J, Simeonov A. 2008. Compound Management for Quantitative High-Throughput Screening. J Lab Autom 13:79-89. doi:10.1016/j.jala.2007.12.004
Potency is the fitted concentration of half-maximal effect; tags give direction and shape of the fitted curve.

Structure (SMILES)	Potency	activity, negative = inhibition
COC(=O)C1=C(C)N=C2SC=C(CC(=O)NC3CC4CCC3C4)N2C1c1ccsc1 (configuration not stated)	inactive	–
CCOC(=O)CCNC(=O)N1CCOc2ccc(CN3CCc4ccccc4C3)cc2C1	inconclusive: 7.94 µM [inhibitor, partial curve, poor fit]	–
COc1ccc(-n2cc(-c3ccccc3)c3c(NC4CCCCC4)ncnc32)cc1	inconclusive: 3.98 µM [inhibitor, single point]	–
CCc1nc2cc(N3CCC(C(=O)NCc4cccc(F)c4)CC3)cnc2nc1CC	inactive	–
NC(=O)NCC(=O)N1CCC2(CCCN(CCCc3ccccc3)C2)C1 (configuration not stated)	inactive	–
COc1ccc(CCNC(=O)c2ccc(Cn3ccn4nc5c(c4c3=O)CCCC5)cc2)cc1OC	inconclusive: 8.91 µM [inhibitor, partial curve, poor fit]	–
CC1=C(C(=O)Nc2ccc(Cl)cc2)C(c2ccccc2C)n2ncc(C(=O)Nc3ccc(C)cc3)c2N1 (configuration not stated)	inconclusive: 17.8 µM [inhibitor, single point]	–
NCc1ccc(-c2cccs2)cc1	–	inconclusive: -153% [inhibitor] [at 44.1 µM]
COc1ccc2c(c1)c(CN1CCOCCNC(=O)CC1)cn2C	inconclusive: 20 µM [inhibitor, single point]	–
COc1ccc(CCNC(=O)C(=O)NCC(c2ccc3c(c2)OCO3)N2CCOCC2)cc1 (configuration not stated)	inconclusive: 11.2 µM [inhibitor, partial curve, poor fit]	–
COc1ccc(-n2nc(C3CCN(Cc4ccncc4)CC3)[nH]c2=O)cc1	inconclusive: 1.41 µM [inhibitor, full curve, poor fit]	–
CCc1ncc2c(=O)n(Cc3ccc(OC)cc3)ccn12	inconclusive: 12.6 µM [inhibitor, single point]	–
CCCNC1(Cc2cc(-c3ccc(F)cc3)on2)COC1	inactive	–
CN1CCN(c2ncc3c(n2)CCN(Cc2cc(Br)cs2)C3)CC1	inconclusive: 7.94 µM [inhibitor, single point]	–
C[C@H](C(=O)N1Cc2ccccc2CC2(CCN(C)C2)C1)c1ccccc1 (some centres not stated)	inconclusive: 3.98 µM [inhibitor, partial curve]	–
CC[C@H]1CN(C(=O)Nc2cccc(C(F)(F)F)c2)CC[C@H]1CC(=O)N(C)CCC#N	inactive	–
Cc1cccc(OCCCCn2c(C3CC(=O)N(c4ccccc4Cl)C3)nc3ccccc32)c1 (configuration not stated)	active: 3.16 µM	–
O=[S+]([O-])(Nc1ccccc1)c1ccc2c(c1)OCCN(Cc1ccc(F)cc1)C2	inconclusive: 2.82 µM [inhibitor, full curve, poor fit]	–
COc1ccc(Nc2c3c(nc4ccc(NC(=O)/C=C/c5cc(OC)c(OC)c(OC)c5)cc24)CCCC3)cc1OC	active: 2.51 µM	–
O=C(Nc1ccc(-c2nc3cc(NC(=O)c4ccccc4Cl)ccc3o2)cc1)c1ccccc1Cl	inconclusive: 8.91 µM [inhibitor, partial curve, poor fit]	–
COc1ccc(C(=O)NC2CCN(c3cn[nH]c(=O)c3)CC2)c(OC)n1	inactive	–

Structure (SMILES)	Potency	activity, negative = inhibition
COc1ccc(N2CCN(C(=O)CSc3n[nH]c(-c4ccccc4)n3)CC2)cc1	inactive	–
COc1cncc(CN2CCC3(CC2)OC(=O)N(Cc2ccccc2C#N)C3(C)c2ccccc2)c1 (configuration not stated)	inconclusive: 1.12 µM [inhibitor, partial curve, poor fit]	–
COc1ccc(C2=NOC3(CCN([S+](=O)([O-])c4c(C)noc4C)C3)C2)cc1 (configuration not stated)	inconclusive: 3.16 µM [inhibitor, full curve]	–
CCCCCN1CCC2(CC1)Cc1ccccc1CNC2=O	–	inconclusive: -146% [inhibitor] [at 44.1 µM]
O=C(c1ccc(C(F)(F)F)cc1)N1CCC(c2noc(-c3ccc(S(=O)(=O)N4CCCC4)cc3)n2)CC1	inconclusive: 17.8 µM [inhibitor, single point]	–
O=c1n(-c2ccncc2)nc2n1CCN([S+](=O)([O-])c1cccs1)C2	inconclusive: 17.8 µM [inhibitor, single point]	–
COc1ccc(-c2cc(-c3cccc(OC)c3OC)cn3cncc23)cc1	active: 1 µM	–
O=C(c1cccs1)N(Cc1cccnc1)c1nc2c(Cl)cccc2s1	inconclusive: 17.8 µM [inhibitor, single point]	–
CC(C)CNC(=O)N1CCCOCCNC(=O)[C@@H]2CCC[C@@H]21	inactive	–
CSc1ccc(CN2CCN(C(=O)COc3ccc(C)cc3)CC2)cc1	inconclusive: 8.91 µM [inhibitor, single point]	–
O=C(Cc1ccccc1)Nc1ccc([C@@H](O)[C@H]2COCC(=O)N2Cc2ccccc2)cc1	inconclusive: 15.8 µM [inhibitor, single point]	–
CCc1nccn(Cc2nnc(C3CC(N)C3)n2CCOC)c1=O (configuration not stated)	inactive	–
CCCN(c1ccc(C(C)C)cc1)S(=O)(=O)c1ccc2c(c1)CCN2C(=O)CC	inconclusive: 8.91 µM [inhibitor, single point]	–
CCOc1ccc(C(=O)NC2CCCN(c3cc(-c4ccc(F)cc4)[nH]n3)C2)cc1 (configuration not stated)	inconclusive: 1.12 µM [inhibitor, partial curve, poor fit]	–
CN1CCN(C(=O)Cc2c[nH]c3ncc(-c4ccc(CO)cc4)cc23)CC1	inconclusive: 31.6 µM [inhibitor, single point]	–
CC(C)CCN1CCC(O)(c2csc(CN3CCN(c4ccccn4)CC3)n2)CC1	inconclusive: 12.6 µM [inhibitor, partial curve, poor fit]	–
O=C(Nc1ccc(Cl)nc1)c1cnn2ncccc12	inactive	–
N#Cc1ccc(-c2cccs2)nc1SCc1c(F)cccc1Cl	inconclusive: 10 µM [inhibitor, single point]	–
COc1cccc(CC(=O)Nc2ccc3c(N4CCCCC4)ncnc3c2)c1	active: 11.2 µM	–
COc1ccccc1NC(=O)C1CN(S(C)(=O)=O)CC12CCCCC2 (configuration not stated)	inconclusive: 17.8 µM [inhibitor, single point]	–
Cc1ccc(-c2cc3c(=O)n(CCNC(=O)c4cc(F)ccc4F)ccn3n2)c(C)c1	inconclusive: 0.631 µM [inhibitor, full curve, poor fit]	–
